Laboratory results: article PMC11231494
No constants are given. Whether binding was seen depends on the method and setting. For some assays here: Binding seen in cells or lysates may run through a third protein. Some results given as binding are weak or reduced against the parent protein; the word gives no strength. Values belong to the substance of their own block, whether it stands above or below them.

Sequences of proteins named here, by UniProt entry; tags and fusion partners are left off. A change or cut given only in a name is not applied to a line headed by its entry. A line that says so, or that is headed by a name, gives the form on record, which may keep a tag or linker. Residues count along the entry.
UniProt P19474: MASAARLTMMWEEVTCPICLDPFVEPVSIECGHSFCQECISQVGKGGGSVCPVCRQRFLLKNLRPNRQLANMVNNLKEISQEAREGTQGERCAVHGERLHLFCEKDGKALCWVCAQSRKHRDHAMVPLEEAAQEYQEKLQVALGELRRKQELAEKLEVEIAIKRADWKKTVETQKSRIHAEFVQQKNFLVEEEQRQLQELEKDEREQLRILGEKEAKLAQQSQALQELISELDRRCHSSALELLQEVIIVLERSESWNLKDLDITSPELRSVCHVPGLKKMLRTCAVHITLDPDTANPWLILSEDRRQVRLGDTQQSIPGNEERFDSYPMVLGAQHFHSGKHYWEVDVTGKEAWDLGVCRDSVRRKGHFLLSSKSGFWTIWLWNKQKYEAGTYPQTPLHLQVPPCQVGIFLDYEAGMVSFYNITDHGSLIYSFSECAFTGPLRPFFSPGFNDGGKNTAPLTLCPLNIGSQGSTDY
Myc-DDK-TRIM21 ΔRING (del aa 1–54): residues 55-475 of P19474
Myc-DDK-TRIM21 ΔCoiled-coil (del aa 125–235) (P19474, form named): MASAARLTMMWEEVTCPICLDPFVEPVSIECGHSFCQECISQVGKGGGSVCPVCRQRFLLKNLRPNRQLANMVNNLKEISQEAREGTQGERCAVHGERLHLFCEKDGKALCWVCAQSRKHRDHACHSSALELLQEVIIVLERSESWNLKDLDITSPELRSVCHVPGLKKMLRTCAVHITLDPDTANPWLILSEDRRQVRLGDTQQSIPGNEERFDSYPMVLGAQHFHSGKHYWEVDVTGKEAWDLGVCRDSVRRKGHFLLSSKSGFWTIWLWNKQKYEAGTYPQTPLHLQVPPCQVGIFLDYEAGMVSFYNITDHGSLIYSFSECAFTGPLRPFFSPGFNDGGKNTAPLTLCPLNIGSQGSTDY
Myc-DDK-TRIM21 ΔB-box (del aa 55–123) (P19474, form named): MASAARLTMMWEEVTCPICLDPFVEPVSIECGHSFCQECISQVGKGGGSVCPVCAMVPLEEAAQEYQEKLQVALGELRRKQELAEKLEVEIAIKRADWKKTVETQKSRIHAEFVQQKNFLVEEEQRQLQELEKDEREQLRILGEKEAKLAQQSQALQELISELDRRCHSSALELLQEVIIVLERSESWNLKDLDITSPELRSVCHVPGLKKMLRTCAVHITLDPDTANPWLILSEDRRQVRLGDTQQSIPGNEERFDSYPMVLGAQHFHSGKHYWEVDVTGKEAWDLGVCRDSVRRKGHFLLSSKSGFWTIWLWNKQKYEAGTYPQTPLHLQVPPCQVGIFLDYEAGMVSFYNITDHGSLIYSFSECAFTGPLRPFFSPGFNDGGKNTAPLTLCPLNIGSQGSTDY
UniProt O15205: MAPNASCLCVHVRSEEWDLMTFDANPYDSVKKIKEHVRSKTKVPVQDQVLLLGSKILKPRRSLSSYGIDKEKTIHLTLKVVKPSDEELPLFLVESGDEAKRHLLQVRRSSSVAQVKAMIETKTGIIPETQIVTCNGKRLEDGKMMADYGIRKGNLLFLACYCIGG
tagless recombinant FAT10AV (O15205, form named): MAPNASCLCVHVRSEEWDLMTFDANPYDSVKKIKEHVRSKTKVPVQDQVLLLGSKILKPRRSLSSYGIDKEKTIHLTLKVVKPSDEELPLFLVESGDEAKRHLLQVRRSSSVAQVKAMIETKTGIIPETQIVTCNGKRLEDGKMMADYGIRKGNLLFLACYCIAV

Experiments:
[1] = biological target: Myc-DDK-tagged TRIM21 (human) (UniProt P19474); assay: co-IP; HEK293T or HEK293 WT cells co-transfected (also UBA6 KO or USE1 KO cells reconstituted with HA-UBA6 or HIS-USE1); cleared Triton X-100 lysate, FLAG M2 affinity gel overnight at 4°C, blot for HA under reducing conditions (4% 2-ME); what is detected is the covalent FAT10-TRIM21 conjugate at ∼80 kD; some samples treated with TNF, cycloheximide and/or MG132
[2] = biological target: Myc-DDK-tagged TRIM21 (human) (UniProt P19474); assay: co-IP; HEK293 UBA6 KO cells co-transfected, with or without 600 U/ml TNF; FLAG immunoprecipitation, blot for HA under reducing conditions; read-out is the covalent conjugate
[3] = biological target: Myc-DDK-tagged TRIM21 (human) (UniProt P19474); assay: condition: only in HEK293 USE1 KO cells reconstituted with USE1-C188A; co-IP; HEK293 USE1 KO cells reconstituted with HIS-USE1 C188A; FLAG immunoprecipitation, blot for HA under reducing conditions; read-out is the covalent conjugate
[4] = biological target: Myc-DDK-tagged TRIM21 (human) (UniProt P19474); assay: co-IP; HEK293 USE1 KO cells co-transfected, with or without 600 U/ml TNF; FLAG immunoprecipitation, blot for HA under reducing conditions; read-out is the covalent conjugate
[5] = biological target: Myc-DDK-TRIM21 ΔRING (del aa 1–54) (human) (UniProt P19474); assay: co-IP; HEK293T or HEK293 WT cells co-transfected (also UBA6 KO or USE1 KO cells reconstituted with HA-UBA6 or HIS-USE1); cleared Triton X-100 lysate, FLAG M2 affinity gel overnight at 4°C, blot for HA under reducing conditions (4% 2-ME); what is detected is the covalent FAT10-TRIM21 conjugate at ∼80 kD; some samples treated with TNF, cycloheximide and/or MG132
[6] = biological target: Myc-DDK-TRIM21 ΔCoiled-coil (del aa 125–235) (human) (UniProt P19474); assay: as above
[7] = biological target: Myc-DDK-TRIM21 ΔB-box (del aa 55–123) (human) (UniProt P19474); assay: as above
6xHIS-3xFLAG-FAT10 = 6xHIS-3xFLAG-FAT10 (UniProt O15205); assay: pull-down
[8] = biological target: recombinant human C-Myc-DDK-TRIM21 (human) (UniProt P19474); assay: in vitro FAT10ylation assay (SDS-PAGE and Western blot); 0.54 μg FLAG-UBA6, 3 μg FAT10 or FAT10-AV and 1 μg C-Myc-DDK-TRIM21 in 20 μl 20 mM Tris-HCl pH 7.6, 50 mM NaCl, 10 mM MgCl2, 0.1 mM DTT, with or without 4 mM ATP, 37°C (60 min in the methods, 30 min in the legend); blot for TRIM21 under reducing conditions; read-out is the covalent conjugate; both purified

binding [3]: no binding | binding [1]: binds | binding [5]: binds | binding [6]: no binding | binding [7]: binds
Substance: HA-tagged FAT10 (from UniProt O15205 1-165)
binding [2]: no binding (condition: in HEK293 UBA6 KO cells) | binding [4]: no binding (condition: in HEK293 USE1 KO cells)

binding [8]: no binding
Substance: tagless recombinant FAT10AV (from UniProt O15205 1-165)

More lines, now with the values behind:

Substance: HA-FAT10AV (from UniProt O15205 1-165)
binding [1]: no binding

Substance: endogenous TRIM21 (from UniProt P19474 1-475)
binding (6xHIS-3xFLAG-FAT10): binds

Substance: tagless recombinant FAT10 (from UniProt O15205 1-165)
binding [8]: binds
